Experimental data published in PubChem BioAssay AID504332 (National Center for Advancing Translational Sciences (NCATS), 2011).
About 31,000 (8.9%) of roughly 350,000 compounds were called active. Inconclusive means that the source gave no clear call. Such entries were picked first, then a sample of the others. The call rests on the fitted dose curve; in most records, active means well fitted inhibition curve with a large enough effect; inconclusive means small, poorly fitted or top-dose-only effect; inactive means no such curve, though single readings can be large or run the other way. Potencies beside an inconclusive call are fits to weak or partial responses and may not hold up.

target: Histone-lysine N-methyltransferase EHMT2 (Homo sapiens) (UniProt Q96KQ7); assay: qHTS Assay for Inhibitors of Histone Lysine Methyltransferase G9a; settings: G9a H3K9 monomethylation, AlphaScreen, 2 h; activity, negative = inhibition: at 59 µM (top of the series) unless noted; further: nearly all actives have a fitted effect of over 75% in size
Sequence of UniProt Q96KQ7 (Q96KQ7 whole entry, looked up): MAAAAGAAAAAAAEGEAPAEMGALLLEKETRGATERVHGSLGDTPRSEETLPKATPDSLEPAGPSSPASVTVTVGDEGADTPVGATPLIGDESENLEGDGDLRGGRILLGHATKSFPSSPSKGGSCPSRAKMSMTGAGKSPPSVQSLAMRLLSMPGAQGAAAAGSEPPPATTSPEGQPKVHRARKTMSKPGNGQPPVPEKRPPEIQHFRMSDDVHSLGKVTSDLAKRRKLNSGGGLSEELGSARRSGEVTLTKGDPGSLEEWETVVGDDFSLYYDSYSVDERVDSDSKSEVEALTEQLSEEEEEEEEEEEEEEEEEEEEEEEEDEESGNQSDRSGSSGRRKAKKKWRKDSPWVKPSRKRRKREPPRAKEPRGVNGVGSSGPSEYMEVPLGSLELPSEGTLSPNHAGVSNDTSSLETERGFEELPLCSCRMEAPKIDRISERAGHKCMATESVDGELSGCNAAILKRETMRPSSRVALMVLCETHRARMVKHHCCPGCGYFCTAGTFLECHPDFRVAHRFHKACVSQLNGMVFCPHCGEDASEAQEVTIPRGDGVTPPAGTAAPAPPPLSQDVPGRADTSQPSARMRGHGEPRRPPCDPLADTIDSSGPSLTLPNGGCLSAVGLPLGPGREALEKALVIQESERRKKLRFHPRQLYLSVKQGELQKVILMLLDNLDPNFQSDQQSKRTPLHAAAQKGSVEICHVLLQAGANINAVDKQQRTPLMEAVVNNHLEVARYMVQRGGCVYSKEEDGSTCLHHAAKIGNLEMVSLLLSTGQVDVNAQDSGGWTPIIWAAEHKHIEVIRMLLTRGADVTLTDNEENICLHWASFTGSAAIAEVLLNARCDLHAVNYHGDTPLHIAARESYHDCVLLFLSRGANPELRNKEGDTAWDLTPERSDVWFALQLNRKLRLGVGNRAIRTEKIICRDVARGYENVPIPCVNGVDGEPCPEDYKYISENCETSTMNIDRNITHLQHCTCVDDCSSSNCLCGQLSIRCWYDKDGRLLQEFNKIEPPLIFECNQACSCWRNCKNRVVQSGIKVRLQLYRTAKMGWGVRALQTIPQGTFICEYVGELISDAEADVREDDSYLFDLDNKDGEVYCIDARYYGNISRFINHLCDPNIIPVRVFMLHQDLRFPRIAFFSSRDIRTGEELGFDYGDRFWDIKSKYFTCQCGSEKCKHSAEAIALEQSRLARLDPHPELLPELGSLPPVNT
Method in brief: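 Quantitative HTS format: methyltransferase activity on a biotin-tagged H3K9 peptide is measured by AlphaScreen, using a rabbit anti-monomethyl-H3K9 antibody with streptavidin donor and anti-IgG acceptor beads. Final levels are 20 nM enzyme, 500 nM peptide, 20 uM SAM; 2 h RT.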
On the % scale 0 is the no-effect control and ±100 the full control effect; potency means the concentration at half of the fitted maximal effect; tags describe the fitted curve by direction and shape.

SMILES | Potency | activity, negative = inhibition
O=C(Nc1ccccc1Cl)C(Cl)C(=O)c1ccccc1 (stereo not given) | active: 39.8 µM | –
Oc1[nH]c2ccccc2c1/C=N/c1nccs1 | inconclusive: 79.4 µM [inhibitor, single point] | –
C=Cc1ccc(Cn2c(C(=O)O)c(CNC3CCCCC3)c3ccc(C)cc32)cc1 | inconclusive: 4.47 µM [inhibitor, partial curve, poor fit] | –
O=C1Nc2cc(Cl)c(Cl)cc2N(O)N1c1ccccc1Cl | inconclusive: 89.1 µM [inhibitor, partial curve, poor fit] | –
COc1ccc(NC(=O)C2=CC(c3ccc(C)cc3)=NS(=O)(=O)N2C)cc1OC | inconclusive: 79.4 µM [inhibitor, single point] | –
O=C(CCS(=O)(=O)c1ccc(Br)s1)NC1CCCCCC1 | inconclusive: 2.82 µM [inhibitor, single point] | –
COc1ccc(CCn2c(=O)c3cccnc3n(CC(=O)Nc3ccc(C)c(F)c3)c2=O)cc1OC | – | inactive: -0.682%
CN1CCc2c(sc(NC(=O)Cc3ccccc3)c2C#N)C1 | active: 44.7 µM | –
COC(=O)c1[nH]c(C)c(/C(O)=C2\C(=O)C(=O)N(CCN(C)C)C2c2ccccc2OC)c1C (stereo not given) | – | inconclusive: -94.7% [inhibitor]
O=C(Cc1csc(NC(=O)Nc2ccc(Cl)cc2)n1)NCc1cccnc1 | inconclusive: 79.4 µM [inhibitor, single point] | –
Nc1nc(N2CCN(C/C=C/c3ccccc3)CC2)nc2ccccc12 | inconclusive: 44.7 µM [inhibitor, partial curve, poor fit] | –
O=C(CSc1nc2scc(-c3ccco3)c2c(=O)n1-c1ccccc1)N1CCOCC1 | – | inactive: 2.96%
COCCNC(=O)c1cc2c(=O)n3cccc(C)c3nc2n1C | active: 28.2 µM | –
CC1CCC2C(=O)N(c3ccc(NC4CCCCC4)c([N+](=O)[O-])c3)C(=O)C2C1 (stereo not given) | inconclusive: 7.08 µM [inhibitor, full curve, poor fit] | –
Cc1ccc(-c2nc(CS(=O)(=O)CC(=O)N3CCc4ccccc4C3)c(C)o2)cc1 | inconclusive: 0.794 µM [inhibitor, full curve, poor fit] | –
Cc1ccccc1NC(=O)c1ccc(F)c(S(=O)(=O)NCC2CCCO2)c1 (stereo not given) | inconclusive: 89.1 µM [inhibitor, single point] | –
Cc1ccccc1-c1nn2c(=O)cc(CN3CCN(C(=O)/C=C/c4ccccc4)CC3)nc2s1 | inconclusive: 39.8 µM [inhibitor, single point] | –
CCOC(=O)Cc1csc(NC(=O)c2ccc3ccccc3n2)n1 | inconclusive: 89.1 µM [inhibitor, single point] | –
CCOC(=O)c1ccc(NC(=O)C2CCN(S(=O)(=O)c3ccc4c(c3)CCCC(=O)N4)CC2)cc1 | – | inactive: -28.9%
O=[N+]([O-])c1ccc(N/N=C/c2cccnc2)cc1 | – | inactive: 0.26%
Cc1cccc(N2C(N)=C(C#N)C(C#N)(C#N)C2c2ccccc2)c1 (stereo not given) | inconclusive: 28.2 µM [inhibitor, single point] | –
Cc1cc(S(=O)(=O)N2CCOCC2)ccc1OCC(=O)N1CCC(C)CC1 | inconclusive: 70.8 µM [inhibitor, partial curve] | –
COc1ccc2c(Cl)c(C(=O)NCCCn3ccnc3)sc2c1 | – | inconclusive: -89.8% [inhibitor]

SMILES | Potency | activity, negative = inhibition
Cc1ccc(S(=O)(=O)Nc2nsc(N)n2)cc1 | active: 31.6 µM | –
CCOC(=O)C1(Cc2ccccc2)CCN(C2Cc3ccccc3C2)CC1 | inconclusive: 10 µM [inhibitor, full curve, poor fit] | –
Cc1ccc(NC(=O)c2cc(C)on2)cc1 | inconclusive: 0.1 µM [inhibitor, full curve, poor fit] | –
C=CCn1c(SCC)nc2sc3c(c2c1=O)CCc1ccccc1-3 | – | inactive: 36.2% [at 102 µM]
O=C1N=C(N2CCC(Cc3ccccc3)CC2)S/C1=C/c1cn[nH]c1-c1ccccc1 | – | inactive: 24.7% [at 102 µM]
COc1ccc(N2CCN(C(=O)c3ccc(Br)o3)CC2)cc1 | inconclusive: 89.1 µM [inhibitor, single point] | –
Cc1ccc(-n2c(=S)[nH]c3[nH]ncc3c2=O)cc1 | active: 35.5 µM | –
CN1CCN(c2nc(-c3cccs3)cc(C(F)(F)F)n2)CC1 | – | inactive: 3.43% [at 12.7 µM]
COC(=O)c1cc(C#N)c(=O)[nH]c1C | – | inactive: 8.18% [at 102 µM]
CCc1ccc2oc(C(=O)Nc3nc(-c4ccc(F)cc4)ns3)c(C)c2c1 | – | inactive: -21.1%
Cc1cccc(OCC(=O)Nc2ccc(OCc3cc(=O)n4cc(C)ccc4n3)cc2)c1 | – | inactive: -0.689%
CC(=O)NCc1ccc(C(=O)CCl)s1 | inconclusive: 70.8 µM [inhibitor, partial curve] | –
Cc1ccccc1C(=O)Nc1nc2c(C)csc2c(=O)s1 | inconclusive: 89.1 µM [inhibitor, single point] | –
CN1CCc2c(sc3c2c(=O)n(-c2ccc(Cl)cc2)c2nncn32)C1 | – | inconclusive: -116% [inhibitor]
O=c1[nH]c2ccccc2n2c(-c3ccccc3)nnc12 | inconclusive: 1.58 µM [inhibitor, single point] | –
COCCC(=O)N1CCC(Oc2ccc(C(=O)N(C)C3CCCCC3)cc2)CC1 | – | inactive: -1.87% [at 0.501 µM]
CC(=O)Nc1ccc(S(=O)(=O)NC2(C(F)(F)F)C(=O)NC(C)=C2C#N)cc1 (stereo not given) | inconclusive: 79.4 µM [inhibitor, partial curve, poor fit] | –
COC(=O)CCC/C=C1/SCC(NC(=O)c2ccccc2)C1O (stereo not given) | – | inactive: -49.4%
CC1CC(C)(C)NC(=S)N1CCC(=O)N1CCc2ccccc21 (stereo not given) | active: 44.7 µM | –
O=C(Nc1ccc2c(c1)OCO2)C(c1ccc(Cl)cc1)N1CCC2(CC1)OCCO2 (stereo not given) | inconclusive: 56.2 µM [inhibitor, partial curve, poor fit] | –
COc1ccc(C2c3[nH]c4ccccc4c3CCN2CCCn2cccn2)c(F)c1 (stereo not given) | inconclusive: 35.5 µM [inhibitor, partial curve, poor fit] | –
Cc1cccc(N2CCN(S(=O)(=O)c3nnc(NC(=O)c4ccc(Cl)cc4)s3)CC2)c1 | inconclusive: 3.16 µM [inhibitor, partial curve, poor fit] | –
